Drawing on PubChem BioAssay AID463173 (ICCB-Longwood Screening Facility, Harvard Medical School, 2010), this text covers survival for 89 compounds.

The structures appear in SMILES notation. Out of some 52,000 compounds screened, about 4,300 (8.3%) were called active. Cut-off read from the data, not from the text of the source: active = survival mostly below about 52% (no sharp cut-off); inactive = mostly above about 56%. The list shows a part of the results.

This assay concerns DeltatarO mutant. Description: S. aureus survival, RN4220 and DeltatarO strains – OD600, teichoic acid synthesis inhibitors, primary screen (AID 463173). Particulars: S. aureus RN4220 wild type/DeltatarO growth, OD600, 18 h, hits give low values, screened at 18.75 µg/mL (by protocol).
For the compound `O=C(Nc1ccc2nc3n(c(=O)c2c1)CCCCC3)c1cccc(C(F)(F)F)c1`, the survival is inactive: 114%. The same measure for `Cc1ccc(N(Cc2cccs2)C(=O)c2ccco2)cc1`: inactive: 75%.

As for `Nc1nn(-c2ccccc2)nc1C(=O)OCc1c(F)cccc1Cl`, the survival was active: 28%. In the case of `CC(C)N(C(=O)Cn1cc(S(=O)(=O)Cc2ccc(Cl)cc2)c2ccccc21)C(C)C` it was inactive: 69%; in that of `COc1ccc(-n2c(SCC(=O)NCc3ccccc3)nc3c([nH]c4ccccc43)c2=O)cc1`, inactive: 93%; in that of `CCN(CC)c1ccc(C2Nc3ccccc3-c3cc(C)nn32)cc1` (centres undefined), active: 7%. As for `CCCCN(CCCNC(=O)c1cc(Nc2ccccc2OC)nc2ccccc12)c1ccccc1`, the survival is inactive: 78%.

Turning to `O=S(=O)(c1ccccc1)c1ccc(N2CCCCC2)cc1`, the survival is inactive: 95%. The same measure for `COc1ccc(C2(CNC(=O)C(=O)Nc3ccccc3C)CCCC2)cc1OC`: inactive: 73%; for `COc1cc(OC)c(NC(=O)N2CCC(CN3CCCC3)CC2)cc1Cl`: inactive: 84%. As for `CCOC(=O)c1ccc(Nc2nn3c(=O)c4ccccc4nc3s2)cc1`, the survival was inactive: 99%. The same measure for `CCCCN(C)C(=O)Cn1cnc2sc(C)c(S(=O)(=O)N3CCC(C)CC3)c2c1=O`: inactive: 68%.

As for `COc1ccccc1Nc1ncnc2scc(-c3ccc(F)cc3)c12`, the survival was inactive: 115%. In the case of `Cc1nn(-c2ccccc2)c2c1N(CC(=O)N1CCN(c3ccccc3F)CC1)C(=O)CS2` it was inactive: 115%; in that of `Cc1ccc(CNC(=O)c2ccc(CS(=O)(=O)Cc3ccc(C)cc3)o2)cc1`, inactive: 49%. As for `Cc1ccc(CNc2ccc3cc(S(=O)(=O)N4CCCCC4)ccc3n2)cc1`, the survival is inactive: 67%. Regarding `CCCCN(C)C(=O)c1ccc2c(c1)N(Cc1cccc(F)c1)C(=O)c1ccccc1S2`, the survival was inactive: 92%. The same measure for `CCOc1cc(C#N)c(-n2nnc3c(sc4nc(C)cc(C)c43)c2=O)cc1OCC`: inactive: 72%. Take `CCOC(=O)c1scc(-c2ccc(C)cc2)c1S(=O)(=O)Nc1cc(OC)ccc1OC`: the survival was inactive: 92%.

For the compound `Cc1cc(C)c(/C=C/c2onc(C)c2S(=O)(=O)N2CCC(C(=O)NCCc3ccccc3)CC2)c(C)c1`, the survival was inactive: 94%.

In the case of `Cc1ccc(OCCCn2c(-c3ccc(Cl)cc3)nc3ccccc3c2=O)c(C)c1`, the survival is inactive: 72%.

With `Cc1ccc(NC(=O)C2CCCN(S(=O)(=O)c3c(C)noc3C)C2)cc1` (centres undefined), the survival is inactive: 120%. Consider `Clc1ccc(-n2c(Cc3ccccc3)nnc2SCc2nc(-c3cccs3)no2)cc1`, for which the survival is inactive: 66%. The same measure for `COc1ccc(NC(=O)c2oc3ccccc3c2NC(=O)C2CCCCC2)c(OC)c1`: inactive: 74%. In the case of `Nc1c(C(=O)Nc2ccccc2)sc2nc3c(cc12)CN(Cc1ccccc1)CC3` it was inactive: 63%; in that of `Cc1ccc(C(=O)c2cn(Cc3ccccc3)c3nc(C)ccc3c2=O)cc1`, inactive: 76%. In the case of `Cc1nc(N2CCCC2)c2c(C(=O)N3CCN(c4cc(Cl)ccc4C)CC3)c(C)oc2n1` it was inactive: 102%. For `CCn1c(=O)c(=O)n(CC)c2cc(S(=O)(=O)Nc3ccc(C)cc3)ccc21`, the survival is inactive: 114%.

Turning to `O=C(Nc1ccccc1)c1snc2c(=O)[nH]cnc12`, the survival was inactive: 113%. Regarding `CCCC(=O)N1CCN(c2nc3ccc(F)cc3s2)CC1`, the survival was inactive: 101%.

On to `O=C(Cn1c(=O)c2cccn2c2ccccc21)NCc1ccccc1F`, for which the survival is inactive: 84%. In the case of `COC(=O)c1ccc(NC(=O)Cn2cnc3c2c(=O)n(C)c(=O)n3C)cc1` it was inactive: 80%; in that of `Cc1cccc(N(CC(=O)NCCSCc2ccccc2)S(=O)(=O)c2ccccc2)c1C`, inactive: 57%. On to `CCc1cccc(C)c1NC(=O)C1CCCN1S(=O)(=O)c1cccc2nsnc12` (centres undefined), for which the survival is inactive: 68%. The same measure for `CCc1ccc(N=C2NC(=O)CC(C(=O)Nc3ccc(OC)cc3)S2)cc1` (centres undefined): inactive: 87%; for `CN(C)S(=O)(=O)c1ccc(NC(=O)CNCc2ccco2)cc1`: inactive: 97%. On to `O=C(Nc1ccc2oc(=O)ccc2c1)c1cccc(F)c1`, for which the survival was inactive: 76%. In the case of `COc1cc2c(cc1OC)C(COc1ccccc1OC)N(C(=O)CC(C)C)CC2` (centres undefined) it was inactive: 70%.

In the case of `CCOC(=O)c1ccccc1NC(=O)Cn1cc(C(=O)c2cccc(OC)c2)c(=O)c2ccc(C)nc21`, the survival is inactive: 85%. Consider `CCOC(=O)c1c(C)[nH]c(CCC(=O)NCCCN2CCN(c3ccc(F)cc3)CC2)c1C`, for which the survival was inactive: 94%.

For `COc1ccc2cc(CNC3CCCCC3)c(=O)[nH]c2c1`, the survival is inactive: 91%.

As to `CC(C)c1ccc(NC(=O)c2cc3c(s2)-c2ccccc2SC3)cc1`, the survival was inactive: 100%. The same measure for `Cc1ccc(CCNC(=O)c2ccc3c(c2)N(Cc2cccc(C)c2)C(=O)c2ccccc2S3(=O)=O)cc1`: inactive: 72%; for `COCCc1nn2c(=O)cc(COC(=O)c3ccc4c(c3)OCO4)nc2s1`: inactive: 128%; for `CC(=O)Nc1ccc(C(=O)CSc2nnc(-c3ccccc3)n2-c2ccccc2)cc1`: inactive: 62%.

As for `Cc1ccc(-c2cc(C(=O)NCc3cnn(C)c3C)c3cc(Br)ccc3n2)cc1`, the survival is active: 36%. In the case of `Cc1ccc(S(=O)(=O)c2nc(-c3ccccc3F)oc2N2CCCCC2)cc1` it was active: 32%. The same measure for `Cc1ccc(S(=O)(=O)N/N=C2/CSCC2NC(=O)c2ccccc2)cc1` (centres undefined): inactive: 87%. The same measure for `CSc1nnc(-c2ccccc2N)c(=O)[nH]1`: inactive: 87%; for `CC(=O)N1CCc2cc(CNS(=O)(=O)c3ccc(F)cc3)ccc21`: inactive: 80%; for `CCc1ccc(-c2cn3c(n2)sc2cc(C(=O)NC4CCCCCC4)ccc23)cc1`: inactive: 79%. With `O=C(NCc1cccc(Cl)c1)c1cc2c(s1)-c1ccccc1OC2`, the survival is inactive: 50%. As to `CCc1c(C)sc2c1CCN(Cc1cccc(F)c1)C2c1ccccc1` (centres undefined), the survival was inactive: 66%. The same measure for `O=C(NC1CCN(C(=O)NC2CCCCC2)CC1)c1ccc(F)cc1`: inactive: 85%. The same measure for `CCS(=O)(=O)N1CCc2cc(C(=O)NCc3ccc(OC)cc3)ccc21`: inactive: 89%; for `Cn1cc(S(=O)(=O)c2cccc(Cl)c2)c(=O)c2cc(F)c(N3CCCCCC3)cc21`: inactive: 81%; for `CCC(CC)C(=O)Nc1ccc(OCc2cc(=O)n3c4c(sc3n2)CCCC4)cc1`: inactive: 100%. The same measure for `O=C(NC1CC1)c1ccc(Cn2c(SCc3cccc(F)c3)nc3cccnc32)cc1`: inactive: 112%; for `Cn1c(SCC#N)nnc1-c1ccccc1`: inactive: 92%; for `O=C(Nc1ccc(Cl)cc1)C1CCN(c2nc3ccccc3nc2C(F)(F)F)CC1`: active: 25%.

Consider `O=C(Nc1ccc(F)c(F)c1)c1nc2ncccn2n1`, for which the survival is inactive: 82%.

Take `O=C(NCC(c1cccnc1)N1CCc2ccccc2C1)c1ccc(F)c(F)c1` (centres undefined): the survival is inactive: 70%. With `COc1ccccc1N1CCN(C(=O)c2ccc(CS(=O)c3ccccc3C)o2)CC1` (centres undefined), the survival is inactive: 75%. Regarding `COc1ccc(CCN2C(=O)c3oc4cc(C)cc(C)c4c(=O)c3C2c2ccc(F)cc2)cc1OC` (centres undefined), the survival is inactive: 56%. The same measure for `O=C(Nc1ccc(NC(=O)c2cc3ccccc3o2)cc1)c1ccccc1`: inactive: 86%. In the case of `COc1cccc(C2(O)CCN(CC(=O)N3CCCC3)CC2)c1` it was inactive: 107%. With `O=C(CN1CCN(S(=O)(=O)c2cc(Cl)ccc2Cl)CC1)Nc1cccc(F)c1`, the survival was inactive: 92%. The same measure for `Cn1cc(S(=O)(=O)c2ccc(Cl)cc2)c(=O)c2cc(F)c(N3CCCCCC3)cc21`: inactive: 83%; for `CCOc1ccc(C2CC(=O)n3nc(-c4ccc(C)cc4)nc3S2)cc1OC` (centres undefined): inactive: 116%.

As for `Cc1cccnc1NCC(O)COc1ccccc1` (centres undefined), the survival was inactive: 88%. In the case of `Fc1ccc(-c2nc(Nc3ccc(F)c(Cl)c3)nc3c2COc2ccccc2-3)cc1` it was inactive: 55%; in that of `CC(C(=O)Nc1cccc(C#N)c1)n1nc(-c2ccccc2)c2c(c1=O)CCCC2` (centres undefined), active: 20%; in that of `CCOC(=O)C1CCCN(C(=O)c2ccc3c(c2)N(Cc2ccccc2)C(=O)c2ccccc2S3(=O)=O)C1` (centres undefined), inactive: 60%. In the case of `CC1=C(C(=O)Nc2ccc(C)cc2C)C(c2ccccc2[N+](=O)[O-])n2ncc(C(=O)Nc3ccccc3)c2N1` (centres undefined) it was inactive: 87%; in that of `CS(=O)(=O)N(CC(=O)N1CCc2ccccc2C1)c1ccc(F)cc1`, inactive: 83%; in that of `CCOc1ccc(NC(=O)c2ccc3c(SCC(=O)O)c4c(nc3c2)CCCC4)cc1`, inactive: 76%. In the case of `Cc1ccc(C(=O)N2CCc3cc(CNS(=O)(=O)c4ccc(Cl)s4)ccc32)cc1` it was inactive: 67%. `Cc1ccc(C)c(N2CCN(C(=O)C3CCN(c4nc(-c5ccc(C(C)C)cc5)no4)CC3)CC2)c1`: the survival is inactive: 80%. The same measure for `COc1c(C)cc(S(=O)(=O)NCCc2c(C)[nH]c3ccccc23)c(C)c1C`: active: 59%; for `CCOC(=O)c1cc(-c2ccccc2)n(-c2cccc(C(=O)Nc3ccc(F)c(F)c3)c2)c1C`: inactive: 87%; for `COc1ccccc1CNC(=O)CCn1c(=O)c2ccccc2n(CC(=O)Nc2cccc(Cl)c2)c1=O`: inactive: 78%. In the case of `Cc1c(NC(=O)c2cc(-c3ccc(Cl)c(Cl)c3)on2)c(=O)n(-c2ccccc2)n1C` it was active: 38%. The same measure for `Cc1ccc(CNC(=O)Cn2nc(C)n3cccc3c2=O)cc1`: inactive: 89%; for `O=C(O)CCn1nnc(-c2cccs2)n1`: inactive: 103%.

On to `Cc1ccc(-n2ncc(C(=O)N3CCN(c4cccc(C)c4)C(C)C3)c2C2CCN(C(=O)OC(C)(C)C)CC2)cc1` (centres undefined), for which the survival is inactive: 129%.

In the case of `CCOc1ccc(N2CC(c3nc4ccccc4n3Cc3cccc(Cl)c3)CC2=O)cc1` (centres undefined), the survival is active: 37%.

As to `Cc1c2cnn(CC(=O)N3CCN(c4ccc(F)cc4)CC3)c(=O)c2c(C)n1Cc1ccc(F)cc1`, the survival was inactive: 68%. The same measure for `O=C(NCc1ccc(Cl)cc1)c1cc(S(=O)(=O)N2CCCCC2)c[nH]1`: inactive: 103%; for `CCOc1ccc2nc(NC(=O)c3cc(=O)c4ccc(C)cc4o3)sc2c1`: active: 25%.
